In PubChem BioAssay AID1159614 (National Center for Advancing Translational Sciences (NCATS), 2016):
The whole screen tested about 45,000 compounds, of which about 65 (0.1%) were called active. The call rests on the fitted dose curve; in most records, active means well fitted activation curve with a large enough effect; inconclusive means small, poorly fitted or top-dose-only effect; inactive means no such curve, though single readings can be large or run the other way. The list shows a part of the results.

target: Galactocerebrosidase (Homo sapiens) (UniProt P54803); assay: A Novel Cell-Based Assay to Identify Small Molecules for B -Galactocerebrosidase; conditions: 145M-Twi-hGALC-G270D cells (Twitcher mouse brain line with human GALC G270D), HMU-beta-Gal fluorescence, 48 h; activation: at the top concentration; further: 0% is about no effect; nearly all actives have a fitted effect of over 65% in size
UniProt P54803, sequence (P54803 whole entry, looked up): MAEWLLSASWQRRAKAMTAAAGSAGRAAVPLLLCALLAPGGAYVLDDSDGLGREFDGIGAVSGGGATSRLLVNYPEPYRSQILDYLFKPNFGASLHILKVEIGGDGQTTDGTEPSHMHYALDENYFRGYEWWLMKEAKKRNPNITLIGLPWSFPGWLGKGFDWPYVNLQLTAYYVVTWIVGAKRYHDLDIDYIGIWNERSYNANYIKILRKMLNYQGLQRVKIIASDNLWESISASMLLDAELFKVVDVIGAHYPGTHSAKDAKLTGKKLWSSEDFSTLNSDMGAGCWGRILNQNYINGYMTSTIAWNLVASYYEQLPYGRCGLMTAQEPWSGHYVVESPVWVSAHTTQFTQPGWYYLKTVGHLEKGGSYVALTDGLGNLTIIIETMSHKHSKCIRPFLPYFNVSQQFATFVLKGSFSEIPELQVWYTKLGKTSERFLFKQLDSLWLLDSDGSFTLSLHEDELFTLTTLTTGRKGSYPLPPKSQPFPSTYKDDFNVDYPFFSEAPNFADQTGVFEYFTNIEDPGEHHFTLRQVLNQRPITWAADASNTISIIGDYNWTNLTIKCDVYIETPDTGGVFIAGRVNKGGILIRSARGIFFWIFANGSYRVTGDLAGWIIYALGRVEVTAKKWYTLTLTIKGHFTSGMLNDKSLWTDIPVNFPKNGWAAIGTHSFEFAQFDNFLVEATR
How it was run: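 Live 145M-Twi cells (Twitcher mouse brain-derived, GALC-null) stably expressing human GALC-G270D, with a wild-type GALC line, were compound-treated. Residual GALC activity was then read as fluorescence from 0.1 mM final HMU-β-gal at pH 5.2; higher signal means activation.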

Which “activation” value does the source give for `COP(=S)(OC)Oc1ccc(S(N)(=O)=O)cc1` here?
The value was inactive: -6.13%.

With `CCN(CC)Cc1nccn1-c1ccc([N+](=O)[O-])cc1C(=O)c1ccccc1Cl` as the molecule, how does the “activation” value read?
The value was inactive: -8.04%.

How did the “activation” value turn out when `[N-]=[N+]=CC(=O)OC[C@H](N)C(=O)O` was run?
Its value is inactive: -8.33%.

Which “activation” value does the source give for `Cc1ccccc1CN1C(=O)C(C)N=C(c2ccccc2)c2ccccc21` (configuration not stated) here?
Its value is inactive: -8.65%.

For `Cc1nc2ccccc2c(=O)n1-c1ccccc1Cl`, which “activation” value is on record?
Its value is inactive: -3.57% [at 114 µM].

With `CCC(C)(C)c1ccc(O)cc1` as the molecule, how does the “activation” value read?
Its value is inactive: -18.3%.

Which “activation” value does the source give for `CCCN1CCC[C@@H]2Cc3[nH]ncc3C[C@H]21` here?
The value was inactive: -13.9%.

With `CC1NCCOC1c1ccccc1` (configuration not stated) as the molecule, how does the “activation” value read?
The value was inactive: -10.7%.

For `COc1cc(CCN)cc(OC)c1OC`, which “activation” value is on record?
Its value is inactive: 8.85% [at 129 µM].

Which “activation” value does the source give for `COc1ccc(CNC(=O)Cn2c(SCC(=O)Nc3ccc(C)c(C)c3)nc3ccccc32)cc1` here?
Its value is inactive: -33.9%.

`C[C@@H]1O[C@@H](O[C@H]2C[C@@H](O)[C@]3(CO)[C@H]4[C@H](O)C[C@]5(C)[C@@H](C6=CC(=O)OC6)CC[C@]5(O)[C@@H]4CC[C@]3(O)C2)[C@H](O)[C@H](O)[C@H]1O` was tested. Which “activation” value did it give?
The value was inactive: -6.17%.

How did the “activation” value turn out when `CC1Cc2ccccc2N1NC(=O)c1ccc(Cl)c(S(N)(=O)=O)c1` (configuration not stated) was run?
The value was inactive: -12.7%.

How did the “activation” value turn out when `C[C@@H](N)[C@@H](O)c1ccccc1` was run?
Its value is inactive: -17.6%.

For `Cc1ccc(C(=O)Nc2ccccc2)cc1S(=O)(=O)N1CCCC1`, which “activation” value is on record?
Its value is inactive: -4.9%.

Which “activation” value does the source give for `CCC1(c2ccc(N)cc2)CCC(=O)NC1=O` (configuration not stated) here?
Its value is inactive: -6.27%.

How did the “activation” value turn out when `ClC1=C(Cl)[C@]2(Cl)[C@@H]3[C@@H]4C[C@@H]([C@H]5O[C@@H]45)[C@@H]3[C@@]1(Cl)C2(Cl)Cl` was run?
The value was inactive: -15.7% [at 114 µM].

How did the “activation” value turn out when `O=C(CCCCl)c1ccc(F)cc1` was run?
The value was inactive: -10.5%.

Which “activation” value does the source give for `CNC(C)Cc1ccc2c(c1)OCO2` (configuration not stated) here?
The value was inactive: -0.806% [at 129 µM].

`CCc1cc(OC)c(C[C@H](C)N)cc1OC` was tested. Which “activation” value did it give?
The value was inactive: -1.03% [at 129 µM].

Which “activation” value does the source give for `NCCc1ccc(O)cc1` here?
The value was inactive: -16.4%.

Which “activation” value does the source give for `CN(C)C(=O)Oc1cc(OC(=O)N(C)C)cc(C(O)CNC(C)(C)C)c1` (configuration not stated) here?
Its value is inactive: -15%.

With `Cc1ccc(C(C)C)c(OCC(=O)N2CCN(CCc3ccncc3)CC2)c1` as the molecule, how does the “activation” value read?
The value was inactive: -28.5%.
